According to the RNAGym collection of RNA variant scans (doi:10.7554/elife.90254):
Read counts are not given, so values of variants with three or more changes are uncertain.

B1: LINE1-mini (parent)
chain: GGCAGAGCUCAACACAGCGUGGCAAAGUGGCUGUGGCUAGACUGCC

Variants of: B1
Test: self-cleavage, relative activity (ratio to wild type); higher = more cleavage; in vitro, sequencing; the parent is a self-cleaving ribozyme
For G1A G7U A14C C37U, the self-cleavage was 0.01. Variant G1C A6U A14G U32G has a self-cleavage of 0.03. Work on G1C G2A U32A G35U G44C yielded a self-cleavage of 0.24. Variant G1C G19U G21A G33C has a self-cleavage of 0. With G1U A4C A11G G22A the self-cleavage was 0.04. Work on G1C C3G U9A A25U G27U yielded a self-cleavage of 0.04. G1A G5A G7U C37U gave a self-cleavage of 1.15. Work on G1A U28G G36A yielded a self-cleavage of 0.06. Work on G1C A11U G33U yielded a self-cleavage of 0.01. For G1C C15G A16C C42U, the self-cleavage was 0. For G1C A26G U34A G35C, the self-cleavage was 0. G1C C10A A12U A16C G33C showed a self-cleavage of 0.01. With G1C U20C G29A U38C the self-cleavage was 0.18. With G1C G22U C23A the self-cleavage was 0.2. With G1A G5U G33U the self-cleavage was 0.04. G1A G19C U32C U43G gave a self-cleavage of 0. G1C C3G A6C C8G C15U G17A G21U U32G G33U gave a self-cleavage of 0.09. With G1C A24G U34C A39G the self-cleavage was 0. G1C C3U U20A G22C C23U A25C C46G gave a self-cleavage of 0.29. With G1C A16G G17A the self-cleavage was 0.01. Work on G1C C10G A26C G27A yielded a self-cleavage of 0. G1C G5A G21C C23A A24U U32C G35A gave a self-cleavage of 0.02. G1C A25U C42A gave a self-cleavage of 0.01. In the case of G1C C10U G17U G27C U43A C45G, the self-cleavage is reported as 0.02. Work on G1C C8A A12U G29A G44U yielded a self-cleavage of 0.02. Work on G1C C3U U9G A14C C37A U43C yielded a self-cleavage of 0.01. With G1C A39U C46U the self-cleavage was 0.06. G1C G5C G21U C31U gave a self-cleavage of 0. G1A U43C C45U showed a self-cleavage of 0.17. For G1C C3G G36C G44A, the self-cleavage was 0.24. G1C C3A G22U G30C gave a self-cleavage of 0.07. For G1C G19U A25U A41U, the self-cleavage was 0.02. Variant G1A G7A G22C C23A A24C has a self-cleavage of 0.25. Variant G1C C10U G27U G35U C45U has a self-cleavage of 0.01. G1C C18U C45G gave a self-cleavage of 0.02. For G1A G22C G27A, the self-cleavage was 0.38. For G1C G19C G33A, the self-cleavage was 0.02. Variant G1C U9G C10U A39C G40U A41U C45G has a self-cleavage of 0.01. Work on G1C G5A A24G G33U U43C yielded a self-cleavage of 0. For G1C G36A A41U C46A, the self-cleavage was 0.09. G1C C10A A12G gave a self-cleavage of 0.01. G1C C8A G21A C23A G36A C37U gave a self-cleavage of 0.09. G1C C3G C15A A16U gave a self-cleavage of 0.15. G1C C3U A14U G17C G27A G44C showed a self-cleavage of 0.03. G1C G21U A26G U34A showed a self-cleavage of 0.04. G1A U20C A26U C45A showed a self-cleavage of 1.41. For G1C A11C G30C, the self-cleavage was 0.01. Variant G1C C18G C31A G40A has a self-cleavage of 0. G1C G36A G40A gave a self-cleavage of 0.09. In the case of G1A G33C G40U A41C U43C, the self-cleavage is reported as 0.04. In the case of G1A U9A G21U, the self-cleavage is reported as 0.43. G1A G40U C42G gave a self-cleavage of 0.11. Work on G1C G2U A6U A16U U20A A41G yielded a self-cleavage of 0.01. G1C C3U A12G C23G G40A showed a self-cleavage of 0.01. Variant G1A G30U G44C has a self-cleavage of 0.12. G1C C13U U20A G27A showed a self-cleavage of 0.03. In the case of G1C C3A G5A G17C A39G, the self-cleavage is reported as 0.07. Variant G1C G5U U32A C37G has a self-cleavage of 0.01. Variant G1A G7U C8A has a self-cleavage of 1.95. G1C G2U C15A G19C A39C showed a self-cleavage of 0.03. With G1C G2U C18U G22A C42U the self-cleavage was 0.03. For G1C C13U C23G G33U, the self-cleavage was 0. In the case of G1A U9A G17A U28C U38A C45G C46U, the self-cleavage is reported as 0.45. In the case of G1C G7C U9G A39C, the self-cleavage is reported as 0.01. G1C C13A G22U C45U gave a self-cleavage of 0.02. In the case of G1C G5C C31G C37A A41U C45U, the self-cleavage is reported as 0.01. For G1C G2U G35C, the self-cleavage was 0.05. For G1C G2U G35U, the self-cleavage was 0.09. Work on G1A G17U G30C yielded a self-cleavage of 0.1. Work on G1C G5C G21C A39U yielded a self-cleavage of 0.02. G1C C10A A16G showed a self-cleavage of 0.01. With G1A G7C C37G the self-cleavage was 0.1. G1C G2A U20C gave a self-cleavage of 0.02. G1C A6U A25C showed a self-cleavage of 0.08. In the case of G1C C10A C23A, the self-cleavage is reported as 0.01. In the case of G1C G7U U28A G35A, the self-cleavage is reported as 0.01. Work on G1C A25G C42A G44A yielded a self-cleavage of 0.01. Variant G1C G7U U20A G22C A26C C46U has a self-cleavage of 0.02. G1C C3U A11U U38C C45U C46G gave a self-cleavage of 0. With G1C U28A A41U the self-cleavage was 0.08. For G1C G36C A39U C46A, the self-cleavage was 0. G1C C10A A12G A25C showed a self-cleavage of 0. In the case of G1A U20A U28C, the self-cleavage is reported as 0.11. With G1C G5C U20A C31G G40C the self-cleavage was 0.02. Work on G1C A4U A6C G22A G33A yielded a self-cleavage of 0.03. For G1A G5U C18U A24G G35U, the self-cleavage was 0.04. In the case of G1C A16C U38G, the self-cleavage is reported as 0. Variant G1A G27C C37A has a self-cleavage of 0.03. G1C C10A G36C showed a self-cleavage of 0.01. Work on G1C C15G A26G C37U yielded a self-cleavage of 0. Variant G1C A14G G30C has a self-cleavage of 0.02. Work on G1A U28A A39C yielded a self-cleavage of 0.06. G1C G2A U34C gave a self-cleavage of 0.05. Work on G1A G27U G33U U34G yielded a self-cleavage of 0.09. Work on G1C C10A G29C yielded a self-cleavage of 0.02. G1A U20A G30A A41G showed a self-cleavage of 0. G1C G2C C15A G22C showed a self-cleavage of 0.03. G1C C10G G33U showed a self-cleavage of 0.03. Variant G1C G30U C45A has a self-cleavage of 0.71. Work on G1C G7U A26G yielded a self-cleavage of 0.08. Variant G1C A14U C45U has a self-cleavage of 0.04. Work on G1C A12G U32A C42U yielded a self-cleavage of 0.01. G1C G2C G5C G22U G35A gave a self-cleavage of 0.01. Variant G1C C10A G22U G33U has a self-cleavage of 0.03. G1A G30U U32C C42G gave a self-cleavage of 0.06. For G1C G2U G7C, the self-cleavage was 0.03. For G1C A12U C13G G19A C23A C46U, the self-cleavage was 0.05. G1A G7U C15U G19C U34A gave a self-cleavage of 0.49. In the case of G1A G29U U43A, the self-cleavage is reported as 0.04. G1C C15U G22A G40A showed a self-cleavage of 0.02. Work on G1C C18U A25G A26U yielded a self-cleavage of 0.01. Work on G1C A6G G33A yielded a self-cleavage of 0.01. In the case of G1C C8G G30A G35C G40U, the self-cleavage is reported as 0. G1C A14U G19U C37A gave a self-cleavage of 0.04. In the case of G1C A14U U20A C23U, the self-cleavage is reported as 0.03. G1C G7U C15U G21A U34G gave a self-cleavage of 0.05. G1A G19U G22A A24G showed a self-cleavage of 0.27. With G1A U9A C31G the self-cleavage was 0.36. G1A U20A G40U showed a self-cleavage of 0.04. G1A U9C G19U G33A G35U showed a self-cleavage of 0.04. Variant G1C G2C C8G A14U G22U G30C has a self-cleavage of 0.04. Variant G1C A4G G5C A12U G27A has a self-cleavage of 0.01. In the case of G1C C3A C15A, the self-cleavage is reported as 0.06. With G1C C23G A25C G30U the self-cleavage was 0.02. Work on G1C A6G A12C A14U C18G G22C U28A yielded a self-cleavage of 0.01. G1C A4C U43C gave a self-cleavage of 0.04. G1C C3U G7A A16G gave a self-cleavage of 0.12. G1A U9C G27A showed a self-cleavage of 0.08. G1C C18A G36A gave a self-cleavage of 0.06. With G1C C13A C18G G19C G40A C46G the self-cleavage was 0. G1C C18G A26C G36A U38A C46A gave a self-cleavage of 0. G1C C15U G19A showed a self-cleavage of 0.1. In the case of G1C A4G G7C A16C C45A, the self-cleavage is reported as 0.06. G1C A4U C13G G17U A25G U34A C37A A41C gave a self-cleavage of 0.02. Work on G1A G22C C23U G29U yielded a self-cleavage of 0.93. Variant G1C G2C U28A U32C has a self-cleavage of 0.02. Variant G1C A6C A25G G30U C37U has a self-cleavage of 0. For G1C G19A A39C, the self-cleavage was 0.02. G1C G5U C10U A12C showed a self-cleavage of 0. In the case of G1C C3U G5U C10A C46A, the self-cleavage is reported as 0.01. G1C A41C C42U U43C showed a self-cleavage of 0.03. In the case of G1C G29U C31G G40U, the self-cleavage is reported as 0. With G1C C3A U34A C37A the self-cleavage was 0.07. G1C C23U G30C U34A G40U showed a self-cleavage of 0.02. Variant G1C U32A G33U C45A has a self-cleavage of 0.04. Work on G1A G5A G7U G17U C18G yielded a self-cleavage of 0.18. For G1A G7A U28G G29C G44A, the self-cleavage was 0.11. Work on G1C G5C A16U G22U A26C G33C yielded a self-cleavage of 0.02. For G1C A11U G19C G30A C31G, the self-cleavage was 0.02. In the case of G1C C10A U20G, the self-cleavage is reported as 0. Work on G1C C8G C15A G29C C42G yielded a self-cleavage of 0.01. Variant G1C C10A U38A has a self-cleavage of 0. G1A G19A A25C G36A gave a self-cleavage of 0.08. G1A G5C C46G gave a self-cleavage of 0.2. For G1C A11C G17U C18A U20C G22C G29A, the self-cleavage was 0. G1C C10U G19C A26C U38A gave a self-cleavage of 0.01. Work on G1C U20A C42U yielded a self-cleavage of 0.04. Variant G1C C8G G22U G29U G44U has a self-cleavage of 0.01. G1A G7A U9A C10A G33U showed a self-cleavage of 0.09. In the case of G1C C23U U34A, the self-cleavage is reported as 0.07. With G1C C13G C45A C46A the self-cleavage was 0.03. G1C C10A G17A gave a self-cleavage of 0.03. G1C G30U U34A gave a self-cleavage of 0.02. For G1C A4U G7U G21U C31U U34C, the self-cleavage was 0.03. G1A U9C A25G A39C A41G showed a self-cleavage of 0.07. G1C C13A C15A C37A showed a self-cleavage of 0.01. In the case of G1C C3A G17A G27C, the self-cleavage is reported as 0.06.
